Measurements: the supplement of paper PMC3334620
Over roughly 33,000 sequences, “E-score (-0.5 to 0.5)” has its median near -0.021; the highest 2% begin near 0.32. The list shows a part of the results.

Biological target: T1, Zap1 (UniProt P47043)
T1 sequence: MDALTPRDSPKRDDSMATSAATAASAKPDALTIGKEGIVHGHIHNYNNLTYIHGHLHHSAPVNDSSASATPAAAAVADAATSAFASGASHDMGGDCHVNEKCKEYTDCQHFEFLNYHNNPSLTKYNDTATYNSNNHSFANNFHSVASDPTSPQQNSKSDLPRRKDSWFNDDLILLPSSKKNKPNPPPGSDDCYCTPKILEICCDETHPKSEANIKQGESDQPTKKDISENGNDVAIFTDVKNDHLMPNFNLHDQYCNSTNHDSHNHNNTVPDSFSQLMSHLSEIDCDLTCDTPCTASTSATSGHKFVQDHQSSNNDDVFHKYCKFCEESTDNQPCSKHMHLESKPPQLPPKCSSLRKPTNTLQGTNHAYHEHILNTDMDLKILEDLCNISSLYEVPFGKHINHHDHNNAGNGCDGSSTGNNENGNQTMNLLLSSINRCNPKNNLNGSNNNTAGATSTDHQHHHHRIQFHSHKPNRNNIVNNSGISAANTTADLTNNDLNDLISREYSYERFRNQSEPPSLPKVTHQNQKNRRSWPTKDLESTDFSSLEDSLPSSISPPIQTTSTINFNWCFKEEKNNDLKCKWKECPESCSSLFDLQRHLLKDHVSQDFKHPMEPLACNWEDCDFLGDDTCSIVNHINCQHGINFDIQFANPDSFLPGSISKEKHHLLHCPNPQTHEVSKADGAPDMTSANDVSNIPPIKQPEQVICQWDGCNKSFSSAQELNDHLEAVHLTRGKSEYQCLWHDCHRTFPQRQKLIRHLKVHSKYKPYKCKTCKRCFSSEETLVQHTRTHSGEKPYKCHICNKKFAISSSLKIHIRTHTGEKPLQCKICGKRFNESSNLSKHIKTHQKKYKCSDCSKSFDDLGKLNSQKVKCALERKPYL
Assay: PBM E-score (8-mer binding enrichment) (E-score (-0.5 to 0.5)); higher = stronger / more preferred TF binding; most listed sequences are background and not binding sites
Conditions: protein concentration: 200 nM; construct: GST-full length
How it was run: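 For each ungapped eight-base word taken together with its reverse complement, the Universal PBM Analysis Suite assigned an E-score. Binding data came from GST-tagged yeast transcription factors, applied at about 100-200 nM, on universal all-10-mer Agilent arrays made double-stranded by primer extension. Fluorescent anti-GST marked bound protein, and scans were normalised with masliner.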

Sequence | PBM E-score
CAAGTGAC | 0.0258
CTGGAAGC | -0.386
CATAGAGC | -0.238
AATGCACC | -0.0326
AAAGCTAT | -0.044
AATTAACC | 0.327
ATAAGAAT | 0.0532
ATACGACA | 0.0572
ACCAGTAA | 0.21
ACATTACA | 0.106
AGCAACGC | -0.00232
AAAGGCCA | 0.132
AGGCGCTC | -0.229
GATGACAA | -0.0225
AAACTGTG | 0.148
GGCCTCAC | 0.019
ATATGCGA | 0.0301
ATCTGCTG | -0.184
CCTTGCAG | 0.0828
TAACTCAA | 0.179
GCGAACAC | -0.146
CTCCCCCA | -0.273
CCAGGGGC | -0.163
CTCACCTC | 0.135
AACGACGG | -0.0791

Sequence | PBM E-score
ACGGAGGA | -0.232
CCACATTA | -0.102
CGCGAGTA | 0.161
CCTCGGGC | 0.00633
CATTGTGA | 0.12
GCAACAAA | 0.219
CGAAGCTA | -0.214
CCGACAGA | 0.17
CGCCTCTA | -0.0576
CCCCACAA | 0.205
ACATTACG | -0.0728
ATGCTTGC | -0.158
CTGTACAG | 0.105
AGGATCCT | 0.0996
CTTTGGGA | -0.0583
CGGCGCCC | -0.232
GAGCTCAA | 0.0476
CGGCTCTC | -0.0676
AGCGGATA | -0.18
ATCGGGGA | 0.0524
CTAACAAG | 0.0748
ACGTTCCT | -0.0976
ACCAAGAG | 0.0448
GGAATACA | 0.127
ACGACCAC | 0.214

Sequence | PBM E-score
AGAGGCGC | -0.335
ACGCCCCT | -0.0421
GGCTAGAA | -0.0341
AGAGTGAA | 0.0257
GCACTGCC | -0.0898
TGAGAAAA | 0.127
CATTTCTC | -0.0308
AACCCCCA | -0.0716
CAGCGGCC | -0.0185
AAACCGAT | 0.0498
ATGTGGTG | 0.0476
CGTTATAG | 0.0032
GCGGCTCA | 0.0986
ACAACAGA | -0.159
ATAGGCAG | -0.173
CGTACTTC | -0.125
ACATATCG | -0.0379
CGCACCTA | -0.074
TACCCGAA | 0.302
GAGGTTCA | 0.254
ATCACCCC | 0.277
AACTTATC | -0.00431
GCGCGTCC | -0.152
CCTAGCCG | -0.191
CTAAAAAC | 0.139

Sequence | PBM E-score
AGCCCAGA | -0.0674
ACGTTAAA | 0.101
AAACTATG | -0.235
CCCTGCGC | -0.156
ACTGATTA | 0.0447
TCGTGTCA | 0.0478
CGTGCTTC | -0.042
CGTTAAAG | 0.141
CCACGTAG | -0.143
AAGGGGCG | -0.209
AAGACCAA | 0.127
GCGCTTCA | -0.0175
GAGACTGC | -0.196
ATTCGCCG | 0.0118
CGCGTAAG | 0.00731
CGACACCA | -0.0859
CAGCGCCA | -0.224
CAATTATC | -0.0722
GTAGCGAA | -0.0439
AGGGTTTA | 0.315
TCTTTAAA | 0.14
ATTGAGGG | 0.0913
AGACTCAC | -0.152
CCGCTCCC | -0.327
ATAAGTAT | -0.0416

Sequence | PBM E-score
CAGGTTAG | 0.212
CTTCGTTA | -0.115
ATATCTAG | 0.0883
CGGCCGCC | 0.066
AATTGTGC | 0.108
CCTATCGA | 0.0826
CGTCAGGC | -0.166
GAGGCCGA | -0.0852
CTCCCACC | -0.157
ACTTTATG | 0.178
CGTCTAGA | -0.0845
TAATAGGA | 0.0672
GCGTACGA | -0.104
CCACGACG | -0.0678
CGTGCTCA | 0.0061
GATGCCAA | -0.174
ATTCCAAA | 0.0335
CGCACTCA | -0.0476
CGATAGAG | -0.236
TGACCACA | 0.165
GGCCGGCA | -0.114
ACTTCTAG | -0.191
AAACATAG | -0.0145
AAGTGCGG | -0.076
CCATTGTC | 0.0194

Sequence | PBM E-score
AGCCGTAG | -0.173
ATTGGGGG | -0.29
ACAATAGA | -0.0361
GCCAGTAA | -0.0458
ACATGTTC | -0.132
ACGGTAGC | 0.116
CTCGCTTC | -0.156
ACATATGG | 0.0536
CTACAACC | 0.284
GGCGCAGA | -0.163
AACGTCGA | 0.0237
CAAACGTG | -0.112
TAGCATAA | 0.0467
CACAATAG | 0.046
GGCCGGAA | 0.079
AAGACGGG | -0.0607
AGACGGAC | -0.0987
GACCGTAA | 0.176
GCATTACC | 0.0693
CAGCAGTA | -0.112
CAGCTCTC | -0.383
TAGGACTA | -0.0609
AAATCTTG | 0.0159
ATCCCCCA | -0.209
ACTGGAAG | -0.176

Sequence | PBM E-score
GCCTAAGC | -0.164
GAACGCCC | 0.0206
AATTTGGC | -0.0234
ACGAGCGC | -0.102
ATGTGATA | 0.0506
AATTACGT | 0.0428
CCACCAGC | -0.101
GCCGGGAC | -0.199
GACGCCGA | 0.022
AGGAGCGG | -0.305
AAGGCCAC | 0.0887
ATGCCACA | -0.111
GGAGGTAC | 0.13
CCCCATTC | -0.0769
GAAACTGC | -0.183
TAATCATA | 0.217
CGAGTTCC | 0.00468
GCCCGCTA | -0.287
CGAATTAC | -0.092
TGATGACA | -0.0144
TCCCGCGA | 0.00977
GAGATATC | -0.0507
